The source of these data is patent US12240853B2, “Compounds useful in HIV therapy” (GlaxoSmithKline Intellectual Property (No.2) Limited, priority 2019, dated 2025).

The experiment has as its system HIV pseudotyped virus, WT. Briefly: microbe, parasite or virus in culture. The following applies: for IC50: Human immunodeficiency virus 1, U373 MG; for Fold Change vs EFdA: fold change of the persistence index relative to EFdA; for Persistence Index: ratio of the IC50 determined at 48 and 0 h. The procedure: The PSV assay was adapted to determine the antiviral persistence of each compound. This assay evaluates the ability of each compound to remain active in cells for two days i.e prevent PSV infection of cells in a dose dependent manner, 48 h after the removal of compound. Duplicate plates of U373 cells were treated with a serial dilution of small molecule inhibitors for 6 h at 37° C. Compounds were removed from cells by washing twice cells with 1×PBS. For baseline group (i.e immediately after washing or 0 h), cells were infected with prepared PSVs and cultured for three days. For experimental group (48 h), the culture medium is added to the washed cells and the plate incubated at 37° C. for 48 h. After two days of culture, the prepared PSVs were added to the cells and the mixture cultured for three days. […] The persistence index, which is the ratio of the IC50 determined at 48 and 0 h is presented in Table 2 as well as the fold change of the persistence index relative to EFdA [(2R,3S,5R)-5-(6-amino-2-fluoro-9H-purin-9-yl)-2-ethynyl-2-(hydroxymethyl)tetrahydrofuran-3-ol].
Statistical analysis and graphing of the data were performed in JMP 13.2.1 (SAS Institute, Cary, NC). A four-parameter logistic Hill Model was fit to % Inhibition and log10 concentration values, separately for each compound, time point and run. A pilot experiment included 2 independent experimental runs and a later follow-up experiment included 4 runs. Quality control criteria based on R^2 and 95% confidence interval ranges of all four parameter estimates were used to exclude curves with poor fits. Using inverse prediction, log10 concentrations were obtained that correspond to 50% Inhibition (log10IC50*) and the log10 persistence index was calculated for each compound and run using the following formula: log10 persistence Index=log10IC50*48 hrs−log10IC50*0hrs. Next, a linear mixed effects model was fit on log10 persistence index values with a fixed effect for compound and a random effect for experimental run, followed by post hoc contrasts to compare the log10 persistence index of the positive control EFdA to the log10 persistence index of other test compounds. The estimated LSMeans and differences were then back-transformed via 10^Estimate to the original scale and reported as persistence index and fold change respectively. Raw p-values were reported. […] The curves in FIG. 1 were obtained from a single curve fit across replicate runs instead of separate fits for each run as described above.

Like-named read-outs stand apart in the source and are kept apart here.

By IC50 is commonly meant the concentration needed to halve the response being measured. With `C#C[C@]1(CO)O[C@@H](n2cnc3c(N)nc(F)nc32)C[C@@H]1O` [EFdA, (2R,3S,5R)-5-(6-amino-2-fluoro-9H-purin-9-yl)-2-ethynyl-2-(hydroxymethyl)tetrahydrofuran-3-ol, reference compound], the “Fold Change vs EFdA” value is recorded as 1.00 and the “Persistence Index” value was determined as 42.87. The 50% inhibitory concentration (IC50) (read-out: WT IC50 at t = 0 h) is 7.4 nM. The IC50 (read-out: WT IC50 at t = 48 h) stood at 316 nM.
The matching figures for `C#C[C@]1(COC(=O)CCCCCCCCC)O[C@@H](n2cnc3c(N)nc(F)nc32)C[C@@H]1OC(=O)OCC` [Example 15, ((2R,3S,5R)-5-(6-amino-2-fluoro-9H-purin-9-yl)-3-((ethoxycarbonyl)oxy)-2-ethynyltetrahydrofuran-2-yl)methyl Decanoate]: 12.23, 3.51, 34.3 nM and 120 nM.
For `C#C[C@]1(COC(=O)CCCCCC)O[C@@H](n2cnc3c(N)nc(F)nc32)C[C@@H]1OC(=O)CCCCCC` [Example 16, (2R,3S,5R)-5-(6-amino-2-fluoro-9H-purin-9-yl)-2-ethynyl-2-((heptanoyloxy)methyl)tetrahydrofuran-3-yl Heptanoate] the same measures were 6.61, 6.49, 5.5 nM and 35.9 nM.
The matching figures for `C#C[C@]1(COC(=O)CCCCCCCCC)O[C@@H](n2cnc3c(N)nc(F)nc32)C[C@@H]1OC(=O)CCCCCCCCC` [Example 18, (2R,3S,5R)-5-(6-amino-2-fluoro-9H-purin-9-yl)-2-((decanoyloxy)methyl)-2-ethynyltetrahydrofuran-3-yl Decanoate]: 15.59, 2.75, 16.1 nM and 44.2 nM.
